The results in this text go back to PMC12820563, “FoxP3 forms a head-to-head dimer in vivo and stabilizes its multimerization on adjacent microsatellites”.

This is one part of the list.

The experiment concerns the target T1, MBP-FoxP1dN (Mus musculus, UniProt P58462 326-579).
T1 sequence: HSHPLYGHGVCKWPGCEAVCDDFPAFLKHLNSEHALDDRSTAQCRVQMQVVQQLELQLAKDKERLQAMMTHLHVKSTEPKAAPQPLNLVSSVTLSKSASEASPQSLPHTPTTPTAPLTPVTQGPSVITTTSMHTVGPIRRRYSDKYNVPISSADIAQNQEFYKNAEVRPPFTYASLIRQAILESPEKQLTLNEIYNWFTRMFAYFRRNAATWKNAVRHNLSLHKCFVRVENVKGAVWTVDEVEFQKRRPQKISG
The experiment can be described thus: PD-seq (MBP pull-down with sequencing); 20 mM Tris-HCl pH 7.5, 100 mM NaCl, 1.5 mM MgCl2, 0.4 uM protein, 0.1 uM dsDNA library, 30 min, room temperature, amylose pull-down; high values mean tight binding. To be noted: protein: recombinant; tags: His6-MBP; chain copies: 2; dsDNA, one strand shown. In outline: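 Binding is the reads-per-million enrichment of pull-down relative to input, pooled across replicates. For this, 0.4 µM His6-MBP-tagged mouse FoxP3 or FoxP1 fragment lacking the N-terminus, made in E. coli, was incubated with 0.1 µM Klenow-filled double-stranded degenerate DNA library for 30 min at room temperature in Tris pH 7.5 buffer with NaCl and MgCl2. Complexes bound to amylose resin were washed three times before proteinase K released the DNA for PCR barcoding and Illumina sequencing.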
As for “GATGATTGTTCTCCCAGCTGATGAATTACGAGCGTCGAGTAAACAAATTTTCCTAATCTTTCTGTTCAAGCGCCATCTAC”, the binding signal is 1.02 RPM ratio (pull-down/input). The same measure for “GATGATTGTTCTCCCAGCTGATGAATTCACTCGTTCGAGTAAACAAATTTTCCTAATCTTTCTGTTCAAGCGCCATCTAC”: 0.934 RPM ratio (pull-down/input). Then “GATGATTGTTCTCCCAGCTGATGAATTGTTATAATCGAGTAAACAAATTTTCCTAATCTTTCTGTTCAAGCGCCATCTAC”, with 1.59 RPM ratio (pull-down/input).

Regarding “GATGATTGTTCTCCCAGCTGATGAATTTCCCCGTTCGAGTAAACAAATTTTCCTAATCTTTCTGTTCAAGCGCCATCTAC”, the binding signal is 0.895 RPM ratio (pull-down/input). For the sequence “GATGATTGTTCTCCCAGCTGATGAATTCCGTGCCTCGAGTAAACAAATTTTCCTAATCTTTCTGTTCAAGCGCCATCTAC”, the binding signal is 0.86 RPM ratio (pull-down/input).

Regarding “GATGATTGTTCTCCCAGCTGATGAATTCCGTTGGTCGAGTAAACAAATTTTCCTAATCTTTCTGTTCAAGCGCCATCTAC”, the binding signal is 0.871 RPM ratio (pull-down/input). The same measure for “GATGATTGTTCTCCCAGCTGATGAATTGATCTTATCGAGTAAACAAATTTTCCTAATCTTTCTGTTCAAGCGCCATCTAC”: 1.08 RPM ratio (pull-down/input); for “GATGATTGTTCTCCCAGCTGATGAATTGAAAGACTCGAGTAAACAAATTTTCCTAATCTTTCTGTTCAAGCGCCATCTAC”: 0.811 RPM ratio (pull-down/input); for “GATGATTGTTCTCCCAGCTGATGAATTCACCCATTCGAGTAAACAAATTTTCCTAATCTTTCTGTTCAAGCGCCATCTAC”: 1.02 RPM ratio (pull-down/input). The same measure for “GATGATTGTTCTCCCAGCTGATGAATTCAAGCCATCGAGTAAACAAATTTTCCTAATCTTTCTGTTCAAGCGCCATCTAC”: 0.974 RPM ratio (pull-down/input). Turning to “GATGATTGTTCTCCCAGCTGATGAATTCAGCCGCTCGAGTAAACAAATTTTCCTAATCTTTCTGTTCAAGCGCCATCTAC”, the binding signal was 0.795 RPM ratio (pull-down/input). The same measure for “GATGATTGTTCTCCCAGCTGATGAATTCATGAGTTCGAGTAAACAAATTTTCCTAATCTTTCTGTTCAAGCGCCATCTAC”: 0.888 RPM ratio (pull-down/input); for “GATGATTGTTCTCCCAGCTGATGAATTCTGACTATCGAGTAAACAAATTTTCCTAATCTTTCTGTTCAAGCGCCATCTAC”: 0.945 RPM ratio (pull-down/input). The same measure for “GATGATTGTTCTCCCAGCTGATGAATTATCACCATCGAGTAAACAAATTTTCCTAATCTTTCTGTTCAAGCGCCATCTAC”: 1.08 RPM ratio (pull-down/input); for “GATGATTGTTCTCCCAGCTGATGAATTCGGCAAATCGAGTAAACAAATTTTCCTAATCTTTCTGTTCAAGCGCCATCTAC”: 0.926 RPM ratio (pull-down/input). The same measure for “GATGATTGTTCTCCCAGCTGATGAATTGGTACCGTCGAGTAAACAAATTTTCCTAATCTTTCTGTTCAAGCGCCATCTAC”: 0.956 RPM ratio (pull-down/input). Regarding “GATGATTGTTCTCCCAGCTGATGAATTGTCTAAGTCGAGTAAACAAATTTTCCTAATCTTTCTGTTCAAGCGCCATCTAC”, the binding signal was 1.09 RPM ratio (pull-down/input). The same measure for “GATGATTGTTCTCCCAGCTGATGAATTTTAAGTGTCGAGTAAACAAATTTTCCTAATCTTTCTGTTCAAGCGCCATCTAC”: 1.01 RPM ratio (pull-down/input).
